The text below walks through data of FireProtDB (doi:10.1002/bip.20645).

Several values for one entry are separate records, joined by “and”; a condition that tells them apart may be missing. Equal values may be shown once.

For the data set the following is noted: Gallus gallus, Thermal, DSC, reversible: Yes; for unfolding free energy: 27 °C.

Regarding “Lysozyme C wild type (sequence left out)”, the unfolding free energy (pH 4, Acetate 50 mM) is 10.3 kcal/mol and 12.4 kcal/mol; the unfolding free energy (pH 4.5, Acetate 50 mM) is 9.99 kcal/mol and 11.8 kcal/mol; the unfolding free energy (pH 5, Acetate 50 mM) is 10 kcal/mol and 11.6 kcal/mol; the unfolding free energy (pH 5.5, Acetate 50 mM) was 9.58 kcal/mol and 11.8 kcal/mol; the unfolding free energy (pH 6.5, Phosphate 50 mM) was 9.32 kcal/mol and 11.2 kcal/mol; the unfolding free energy (pH 7, Phosphate 50 mM) is 9.01 kcal/mol. Further, the unfolding free energy (pH 7.5, Phosphate 50 mM) came to 10.7 kcal/mol. Further, the Tm (usually the temperature at which the thermal transition is half complete) by setting is: (pH 4, Acetate 50 mM) 77 °C and 80 °C; (pH 4.5, Acetate 50 mM) 77 °C and 79.2 °C; (pH 5, Acetate 50 mM) 76.5 °C and 78.8 °C; (pH 5.5, Acetate 50 mM) 75.7 °C; (pH 6.5, Phosphate 50 mM) 74 °C and 76.7 °C; (pH 7, Phosphate 50 mM) 73 °C. The “heat capacity change of unfolding” value (pH 4, Acetate 50 mM) was 1.55 kcal/mol/K and 1.7 kcal/mol/K. The “unfolding enthalpy (calorimetric)” value reads like this: (pH 4, Acetate 50 mM) 113 kcal/mol and 130 kcal/mol; (pH 4.5, Acetate 50 mM) 111 kcal/mol and 127 kcal/mol; (pH 5, Acetate 50 mM) 111 kcal/mol and 125 kcal/mol; (pH 5.5, Acetate 50 mM) 108 kcal/mol; (pH 6.5, Phosphate 50 mM) 107 kcal/mol and 123 kcal/mol; (pH 7, Phosphate 50 mM) 105 kcal/mol.
